The full ranking holds about 81,000 sequences; the median of “one-hybrid fitness for binding parS DNA” is about -0.17, and the highest 2% start at about 0.51. The list shows a part of the results.
B1: Caulobacter ParB omega fusion; a variant is named by its letters at X, in order, B8GW30 (parent)
chain: MESVVVGEPGMSEGRRGLGRGLSALLGEVDAAPAQAPGEQLGGSREAPIEILQRNPDQPRRTFREEDLEDLSNSIREKGVLQPILVRPSPDTAGEYQIVAGERAWRAAQRAGLKTVPIMVRELDDLAVLEIGIIENVQRADLNVLEEALSYKVLMEKFERTQENIAQTIGKSXSHVANXMRLLXLPDEVQSYLVSGELTAXHARAIAAAADPVALAKQIIEGGLSVRETEALARKAPNLSAGKSKGGRPPRVKDTDTQALESDLSSVLGLDVSIDHRGSTGTLTITYATLEQLDDLCNRLTRGI

Variants of: B1
Experiment: one-hybrid fitness for binding parS DNA (scaled: cognate 1, non-cognate 0); higher = stronger binding
Details: with parS DNA site
How it was run: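 Fitness here means the log change in variant-to-wild-type read ratio between plasmids sequenced before and after selection. That scale was set so cognate equals 1 and non-cognate equals 0. The selection was a bacterial one-hybrid screen of Caulobacter ParB libraries, four specificity codons randomised, in E. coli USO carrying a HIS3 reporter with the site 19 bp from the promoter, grown 48 hours at 37°C on M9-minus-histidine with 0.1 mM IPTG and 5 mM 3-AT.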

Variant | one-hybrid fitness for binding parS DNA
DTFS | ≤ 0.2
QSEW | ≤ 0.2
HMTV | ≤ 0.2
HVFC | ≤ 0.2
NHLL | ≤ 0.2
PCQN | ≤ 0.2
DTDR | ≤ 0.2
EMRR | ≤ 0.2
KPVD | ≤ 0.2
PGQD | ≤ 0.2
DQWV | ≤ 0.2
GWWT | ≤ 0.2
AHYE | ≤ 0.2
RSVA | 0.515
SNPL | ≤ 0.2
GVAP | ≤ 0.2
INHS | ≤ 0.2
LCPR | ≤ 0.2
TEMF | ≤ 0.2
CTSK | ≤ 0.2
LGYE | ≤ 0.2
SRMR | ≤ 0.2
TSYH | ≤ 0.2
KIRS | ≤ 0.2
PGLN | ≤ 0.2
QFVQ | ≤ 0.2

Variant | one-hybrid fitness for binding parS DNA
PMCS | ≤ 0.2
WSSA | ≤ 0.2
QSNH | ≤ 0.2
CGPA | ≤ 0.2
WFSI | ≤ 0.2
QTPS | ≤ 0.2
KQQT | ≤ 0.2
IQTA | ≤ 0.2
FRSR | ≤ 0.2
KDPV | ≤ 0.2
EALY | ≤ 0.2
NSEC | ≤ 0.2
SVPN | ≤ 0.2
ESGK | ≤ 0.2
EAPK | ≤ 0.2
CTYC | ≤ 0.2
QCCS | ≤ 0.2
FRVS | ≤ 0.2
VQYS | ≤ 0.2
EAKA | ≤ 0.2
EMLW | ≤ 0.2
INVG | ≤ 0.2
VPSS | ≤ 0.2
KGIE | ≤ 0.2
LYRT | ≤ 0.2
IRRN | ≤ 0.2

Variant | one-hybrid fitness for binding parS DNA
FPPT | ≤ 0.2
AELG | ≤ 0.2
KKYG | ≤ 0.2
RGWC | 0.504
EIRT | ≤ 0.2
QIQD | ≤ 0.2
FWYL | ≤ 0.2
GQPC | ≤ 0.2
LVHR | ≤ 0.2
QFLG | ≤ 0.2
DRKR | ≤ 0.2
SDLS | ≤ 0.2
APNY | ≤ 0.2
FAET | ≤ 0.2
WMIC | ≤ 0.2
RISP | 0.209
LTSG | ≤ 0.2
PHIA | ≤ 0.2
IADT | ≤ 0.2
HKST | ≤ 0.2
PKWL | ≤ 0.2
PFNL | ≤ 0.2
APID | ≤ 0.2
CHLG | ≤ 0.2
THTV | ≤ 0.2
PYLR | ≤ 0.2

Variant | one-hybrid fitness for binding parS DNA
KRVW | ≤ 0.2
TDVR | ≤ 0.2
TENS | ≤ 0.2
WSMC | ≤ 0.2
NWLW | ≤ 0.2
ENLY | ≤ 0.2
CHTR | ≤ 0.2
SSRA | ≤ 0.2
HWRT | ≤ 0.2
KMKR | ≤ 0.2
YVNP | ≤ 0.2
NDLE | ≤ 0.2
QPSI | ≤ 0.2
VPNN | ≤ 0.2
MTSF | ≤ 0.2
AVTT | ≤ 0.2
MNTL | ≤ 0.2
MFPT | ≤ 0.2
NFES | ≤ 0.2
LYSN | ≤ 0.2
CMGC | ≤ 0.2
ARWG | ≤ 0.2
YRLS | ≤ 0.2
GRTS | ≤ 0.2
KENC | ≤ 0.2
HKGH | ≤ 0.2

Variant | one-hybrid fitness for binding parS DNA
HFLR | ≤ 0.2
KRCI | ≤ 0.2
ITAS | ≤ 0.2
RVLQ | ≤ 0.2
PDHE | ≤ 0.2
DPGS | ≤ 0.2
PTER | ≤ 0.2
KFAS | ≤ 0.2
MVLV | ≤ 0.2
RKGI | ≤ 0.2
PPPK | ≤ 0.2
CSDS | ≤ 0.2
CRLG | ≤ 0.2
IPPS | ≤ 0.2
TCVR | ≤ 0.2
PDDL | ≤ 0.2
PLKA | ≤ 0.2
RCQH | 0.25
SCIY | ≤ 0.2
QPRC | ≤ 0.2
LYYT | ≤ 0.2
FDDT | ≤ 0.2
CMAG | ≤ 0.2
VKIR | ≤ 0.2
HPKA | ≤ 0.2
WRCS | ≤ 0.2

Variant | one-hybrid fitness for binding parS DNA
PEAG | ≤ 0.2
PQNM | ≤ 0.2
YSHY | ≤ 0.2
NVGN | ≤ 0.2
GKPH | ≤ 0.2
RRNM | 0.656
VYPY | ≤ 0.2
AESS | ≤ 0.2
PGHY | ≤ 0.2
NGPR | ≤ 0.2
QNVW | ≤ 0.2
KSRG | ≤ 0.2
RNAA | 0.456
PWYC | ≤ 0.2
FGNR | ≤ 0.2
KWYS | ≤ 0.2
QWYM | ≤ 0.2
TFGN | ≤ 0.2
SNRK | ≤ 0.2
WVQG | ≤ 0.2
CHRG | ≤ 0.2
VSNI | ≤ 0.2
TVHR | ≤ 0.2
